Measurements as given in patent US12484583B2 (priority 2019, dated 2025).

Key:
Type in all cases: cell-based
Fusarium graminerum [1] = conditions: 3 days
Fusarium culmorum [2] = experiment: Fungal growth on PDA agar, chlorfenapyr (Example 20); conditions: natamycin 1 ppm alone; 7 days
From the text: (§1) The Colby equation (Colby, 1967. Weeds 15: 20-22) calculates the expected antifungal activity (E in %) of a combination comprising more than one active ingredients: E=X+Y−[(X·Y)/100] wherein X and Y are the observed antifungal activities (in %) of the individual active ingredients x and y, respectively. If the observed antifungal activity (O in %) of the combination exceeds the expected antifungal activity (E in %) of the combination and the synergy factor O/E is thus >1.0, the combined application of the active ingredients leads to a synergistic antifungal effect.
(§2) Agar medium was prepared by mixing in a 100 ml Duran bottle 3.9 g of potato dextrose agar (PDA) from Carl-Roth (Carl-Roth GmbH+Co. KG, Karlsruhe, Germany) with 100 ml deionized water and autoclaving the Duran bottle at 120° C. for 15 minutes. After autoclaving, the solution was cooled by putting it in a 48° C. oven for about two hours. […] The medium in the Duran bottle was divided over 5 petri dishes (90×15 mm), 20 ml per petri dish by using 25 ml serological pipets (ROTILABO®; Carl-Roth).
(§3) Fungal spore suspensions were prepared by drenching a fully grown petri dish with sterile water. The fungus was scraped off and filtered through a Miracloth (pore size: 22-25 μm) (Merck KGaA, Darmstadt, Germany; catalogue number: 475855). The number of spores were counted with a hemocytometer and fungal suspension was adjusted to 10^6 spores per ml. Afterward, 5 µl of prepared spore suspension was pipetted on the center of the agar plate. The plates were incubated at 25° C. Measurement of the fungal growth was done using calipers at different time points.
See Example 6. In this example the product SPECTRE® (Adama) containing the active ingredient chlorfenapyr belonging to IRAC Group 13 was used.
The insecticide concentration “N” (see below) that was used was 1 ml of Spectre product added to 100 ml PDA agar. 0.5N: 0.5 ml and 0.25N is 0.25 ml Spectre per 100 ml of PDA agar.
(§4) The efficacy was assessed after 7 days of incubation in a stove at 25° C.

Fusarium culmorum [3] = experiment: Fungal growth on PDA agar, fipronil (Example 6); conditions: natamycin 1 ppm alone; 7 days
From the text: as §1, §2, §3
The insecticide concentration “N” (see below) that was used was 0.94 g insecticide product per 100 ml PDA agar. 0.5 N is 0.47 g. […] The efficacy was assessed after 7 days of incubation in a stove at 25° C. Synergistic calculation was done using the Colby equation.

Sclerotinia sclerotiorum = experiment: Fungal growth on PDA agar, lambda-cyhalothrin (Example 9); conditions: natamycin 0.5 ppm alone; 4 days
From the text: as §1, §2, §3
(§5) See Example 6. In this example the product KARATE ZEON® of Syngenta containing the active ingredient lambda-cyhalothrin belonging to IRAC Group 3 was used.
The insecticide concentration “N” (see below) that was used was 500 μl of a 25 times in water diluted insecticide solution per 100 ml PDA agar. 2N is 1000 μl of the in water diluted solution per 100 ml PDA agar. 5N was 100 μl of the undiluted product in 100 ml of PDA agar.

Fusarium culmorum [4] = experiment: Fungal growth on PDA agar, abamectin, 7 days (Example 14); conditions: natamycin 1 ppm alone
From the text: as §1, §2, §3
See Example 6. In this example the product […]® (Syngenta) containing the active ingredient abamectin belonging to IRAC Group 6 was used. The insecticide concentration “N” (see below) that was used was 75 μl of insecticide product per 100 ml PDA agar. 0.5N is 37.5 μl of the product per 100 ml PDA agar.
as §4

Alternaria solani = experiment: Fungal growth on PDA agar, lambda-cyhalothrin (Example 8); conditions: natamycin 0.5 ppm alone; 4 days
From the text: as §1, §2, §3, §5
The insecticide concentration “N” (see below) that was used was 500 μl of a 25 times in water diluted insecticide solution per 100 ml PDA agar. 2N is 1000 μl of the in water diluted solution per 100 ml PDA agar. 5N was 100 μl of the undiluted Karate zeon product in 100 ml of PDA agar.

Fusarium culmorum [5] = experiment: Fungal growth on PDA agar, abamectin, 8 and 12 days (Example 13); conditions: natamycin 1 ppm alone
From the text: as §1, §2, §3
See Example 6. In this example the product […]® (Syngenta) containing the active ingredient abamectin belonging to IRAC Group 6 was used.
The insecticide concentration “N” (see below) that was used was 75 μl of insecticide product per 100 ml PDA agar. 0.5N is 37.5 μl of the product per 100 ml PDA agar.
The efficacy was assessed after 8 and 12 days of incubation in a stove at 25° C.

Botrytis cinerea [6] = experiment: Fungal growth on PDA agar, hydropene (Example 16); conditions: 4 days
Fusarium graminerum [7] = conditions: 8 days
Botrytis cinerea [8] = experiment: Fungal growth on PDA agar, lambda-cyhalothrin (Example 10); conditions: natamycin 1 ppm alone; 6 days
From the text: as §1, §2, §3, §5
The insecticide concentration “N” (see below) that was used was 20 μl of insecticide product per 100 ml PDA agar. 0.5N is 10 μl of the product per 100 ml PDA agar. 0.25N was 5 μl of the undiluted Karate zeon product in 100 ml of PDA agar and 0.125N was 2.5 μl of the insecticide product per 100 ml PDA agar.
1:25 (w/w) and 1:50 (w/w). The efficacy was assessed after 6 days of incubation in a stove at 25° C.

Fusarium culmorum [9] = experiment: Fungal growth on PDA agar, hydropene (Example 17); conditions: 5 days
Fusarium graminerum [10] = conditions: 8 days; remark: listed apart in the source
Fusarium graminerum [11] = test system: Fusarium graminerum
Fusarium graminerum [12] = conditions: 5 days
Fusarium culmorum [13] = experiment: Fungal growth on PDA agar, lambda-cyhalothrin (Example 7); conditions: natamycin 1 ppm alone; 7 days
From the text: as §1, §2, §3, §5
The insecticide concentration “N” (see below) that was used was 20 μl insecticide product per 100 ml PDA agar. 0.5 N is 10 μl per 100 ml PDA agar.

Botrytis cinerea [14] = experiment: Fungal growth on PDA agar, chlorantraniliprole (Example 15); conditions: natamycin 1 ppm alone
From the text: as §1, §2, §3
See Example 6. In this example the product CORAGEN® of Dupont containing the active ingredient chlorantraniliprole belonging to IRAC Group 28 was used.
The insecticide concentration “N” (see below) that was used was 125 μl of insecticide product per 100 ml PDA agar. Per 100 ml PDA agar the concentration 0.25N contained 31.25 μl coragen; 0.5N contained 62.5 μl coragen, 2N contained 250 μl coragen, 5N contained 625 μl coragen and 10N contained 1250 μl of the coragen product per 100 ml PDA agar.
The efficacy was assessed after 4 and 5 days of incubation in a stove at 25° C.

Fusarium culmorum [15] = experiment: Fungal growth on PDA agar, thiamethoxam (Example 12); conditions: natamycin 0.5 pm alone; 4 days
From the text: as §1, §2, §3
See Example 6. In this example the active ingredient thiamethoxam belonging to IRAC Group 4 was mixed with water to make a 1000 ppm solution. The insecticide concentration “N” (see below) that was used was 5 ml of insecticide solution per 100 ml PDA agar. 2N is 10 ml of the thiamethoxam solution per 100 ml PDA agar.
The efficacy was assessed after 4 days of incubation in a stove at 25° C.

[16] = emamectin benzoate 0.5N (125 mg OPTIGARD Cockroach Gel Bait per 100 ml PDA), alone or + natamycin 0.25 ppm (1:5 w/w)
[17] = emamectin benzoate 1N (250 mg OPTIGARD Cockroach Gel Bait per 100 ml PDA), alone or + natamycin 0.25 ppm (1:10 w/w)
[18] = hydropene 0.25N (75 μl of 2.49 ml Gentrol in 50 ml water), alone or + natamycin 1 ppm (1:3.4 w/w)
[19] = hydropene 0.5N (150 μl of 2.49 ml Gentrol in 50 ml water), alone or + natamycin 1 ppm (1:6.75 w/w)
[20] = hydropene 1N (300 μl of 2.49 ml Gentrol in 50 ml water), alone or + natamycin 1 ppm (1:13.5 w/w)

emamectin benzoate
Area (fungal growth) (Fusarium graminerum [1]; [16]): 329.33 mm2 | O % observed antifungal activity (Fusarium graminerum [1]; [16]): 33.25% | Area (fungal growth) (Fusarium graminerum [1]; [17]): 486.54 mm2 | O % observed antifungal activity (Fusarium graminerum [1]; [17]): 1.39%

C[C@@H]1C/C=C/C=C/C=C/C=C/[C@H](O[C@@H]2O[C@H](C)[C@@H](O)[C@H](N)[C@@H]2O)C[C@@H]2O[C@](O)(C[C@@H](O)C[C@H]3O[C@@H]3/C=C/C(=O)O1)C[C@H](O)[C@H]2C(=O)O [Natamycin, natamycin]
Area (fungal growth) (Fusarium culmorum [2]): 1840.10 mm2 | O % observed antifungal activity (Fusarium culmorum [2]): 28.42% | Area (fungal growth) (Fusarium culmorum [3]): 1865.54 mm2 | O % observed antifungal activity (Fusarium culmorum [3]): 37.35% | Area (fungal growth) (Sclerotinia sclerotiorum): 1084.35 mm2 | O % observed antifungal activity (Sclerotinia sclerotiorum): 44.60% | Area (fungal growth) (Fusarium culmorum [4]): 1865.54 mm2 | O % observed antifungal activity (Fusarium culmorum [4]): 37.35% | Area (fungal growth) (Alternaria solani): 722.91 mm2 | O % observed antifungal activity (Alternaria solani): 55.73% | Area (fungal growth) (Fusarium culmorum [5]; after 8 days): 2225.44 mm2 | O % observed antifungal activity (Fusarium culmorum [5]; after 8 days): 31.81% | Area (fungal growth) (Fusarium culmorum [5]; after 12 days): 3962.08 mm2 | O % observed antifungal activity (Fusarium culmorum [5]; after 12 days): 18.35% | Area (fungal growth) (Botrytis cinerea [6]; natamycin 1 ppm alone): 11.51 mm2 | O % observed antifungal activity (Botrytis cinerea [6]; natamycin 1 ppm alone): 99.61% | Area (fungal growth) (Fusarium graminerum [7]): 2225.44 mm2 | O % observed antifungal activity (Fusarium graminerum [7]): 31.81% | Area (fungal growth) (Botrytis cinerea [8]): 2361.79 mm2 | O % observed antifungal activity (Botrytis cinerea [8]): 27.35% | Area (fungal growth) (Fusarium culmorum [9]; natamycin 1 ppm alone): 811.66 mm2 | O % observed antifungal activity (Fusarium culmorum [9]; natamycin 1 ppm alone): 4.88% | Area (fungal growth) (Fusarium graminerum [10]): 2225.44 mm2 | O % observed antifungal activity (Fusarium graminerum [10]): 31.81% | Area (fungal growth) (Fusarium graminerum [11]; after 8 days): 2225.44 mm2 | O % observed antifungal activity (Fusarium graminerum [11]; after 8 days): 31.81% | Area (fungal growth) (Fusarium graminerum [11]; after 12 days): 3962.08 mm2 | O % observed antifungal activity (Fusarium graminerum [11]; after 12 days): 18.35% | Area (fungal growth) (Fusarium graminerum [12]): 1294.81 mm2 | O % observed antifungal activity (Fusarium graminerum [12]): 51.54% | Area (fungal growth) (Fusarium culmorum [13]): 1865.54 mm2 | O % observed antifungal activity (Fusarium culmorum [13]): 37.35% | Area (fungal growth) (Fusarium graminerum [1]): 484.32 mm2 | O % observed antifungal activity (Fusarium graminerum [1]): 1.84% | Area (fungal growth; column head not given) (Botrytis cinerea [14]; after 4 days): 1456.89 | O % observed antifungal activity (Botrytis cinerea [14]; after 4 days): 42.22 | Area (fungal growth) (Botrytis cinerea [14]; after 5 days): 3089.49 mm2 | O % observed antifungal activity (Botrytis cinerea [14]; after 5 days): 27.60% | Area (fungal growth) (Fusarium culmorum [15]): 789.92 mm2 | O % observed antifungal activity (Fusarium culmorum [15]): 15.59%

C/C=C(\C)C(=O)O[C@H]1C[C@@H](OC(C)=O)[C@@]2(C(=O)OC)CO[C@H]3[C@@H](O)[C@@](C)([C@]45O[C@@]4(C)[C@H]4C[C@@H]5O[C@@H]5OC=C[C@@]54O)[C@H]4[C@]1(CO[C@]4(O)C(=O)OC)[C@@H]32 [Azadirachtin]
Area (fungal growth) (Fusarium graminerum [10]): 2262.22 mm2 and 3303.19 mm2

CCOC(=O)/C=C(C)/C=C/CC(C)CCCC(C)C (stereo not shown) [hydropene, hydroprene]
Area (fungal growth) (Botrytis cinerea [6]; [18]): 287.31 mm2 | O % observed antifungal activity (Botrytis cinerea [6]; [18]): 90.20% | Area (fungal growth) (Botrytis cinerea [6]; [19]): 270.12 mm2 | O % observed antifungal activity (Botrytis cinerea [6]; [19]): 90.78% | Area (fungal growth) (Botrytis cinerea [6]; [20]): 251.05 mm2 | O % observed antifungal activity (Botrytis cinerea [6]; [20]): 91.43% | Area (fungal growth) (Fusarium culmorum [9]; [18]): 410.28 mm2 | O % observed antifungal activity (Fusarium culmorum [9]; [18]): 51.92% | Area (fungal growth) (Fusarium culmorum [9]; [19]): 371.59 mm2 | O % observed antifungal activity (Fusarium culmorum [9]; [19]): 56.45% | Area (fungal growth) (Fusarium culmorum [9]; [20]): 291.67 mm2 | O % observed antifungal activity (Fusarium culmorum [9]; [20]): 65.82% | O % observed antifungal activity (Fusarium graminerum [12]): 83.75% and 88.72% and 75.87%

Several values for one entry are separate records, joined by “and”; a condition that tells them apart may be missing. Equal values may be shown once. Read-outs that look alike come from different tables or passages of the source.
